# Laboratory results from PubChem BioAssay AID1347165 (National Center for Advancing Translational Sciences (NCATS), 2019).
# Among all 220,000 compounds or so, about 5,700 (2.6%) were called active. The shares of active, inactive and inconclusive entries below differ from those in the screen. The call rests on the fitted dose curve; in most records, active means well fitted inhibition curve with a large enough effect; inconclusive means small, poorly fitted or top-dose-only effect; inactive means no such curve, though single readings can be large or run the other way. Potencies of inconclusive entries are doubtful fits and often do not repeat.
# Molecular target: Lysine-specific demethylase 5B (Homo sapiens) (UniProt Q9UGL1)
# Sequence of UniProt Q9UGL1 (Q9UGL1 whole entry, looked up): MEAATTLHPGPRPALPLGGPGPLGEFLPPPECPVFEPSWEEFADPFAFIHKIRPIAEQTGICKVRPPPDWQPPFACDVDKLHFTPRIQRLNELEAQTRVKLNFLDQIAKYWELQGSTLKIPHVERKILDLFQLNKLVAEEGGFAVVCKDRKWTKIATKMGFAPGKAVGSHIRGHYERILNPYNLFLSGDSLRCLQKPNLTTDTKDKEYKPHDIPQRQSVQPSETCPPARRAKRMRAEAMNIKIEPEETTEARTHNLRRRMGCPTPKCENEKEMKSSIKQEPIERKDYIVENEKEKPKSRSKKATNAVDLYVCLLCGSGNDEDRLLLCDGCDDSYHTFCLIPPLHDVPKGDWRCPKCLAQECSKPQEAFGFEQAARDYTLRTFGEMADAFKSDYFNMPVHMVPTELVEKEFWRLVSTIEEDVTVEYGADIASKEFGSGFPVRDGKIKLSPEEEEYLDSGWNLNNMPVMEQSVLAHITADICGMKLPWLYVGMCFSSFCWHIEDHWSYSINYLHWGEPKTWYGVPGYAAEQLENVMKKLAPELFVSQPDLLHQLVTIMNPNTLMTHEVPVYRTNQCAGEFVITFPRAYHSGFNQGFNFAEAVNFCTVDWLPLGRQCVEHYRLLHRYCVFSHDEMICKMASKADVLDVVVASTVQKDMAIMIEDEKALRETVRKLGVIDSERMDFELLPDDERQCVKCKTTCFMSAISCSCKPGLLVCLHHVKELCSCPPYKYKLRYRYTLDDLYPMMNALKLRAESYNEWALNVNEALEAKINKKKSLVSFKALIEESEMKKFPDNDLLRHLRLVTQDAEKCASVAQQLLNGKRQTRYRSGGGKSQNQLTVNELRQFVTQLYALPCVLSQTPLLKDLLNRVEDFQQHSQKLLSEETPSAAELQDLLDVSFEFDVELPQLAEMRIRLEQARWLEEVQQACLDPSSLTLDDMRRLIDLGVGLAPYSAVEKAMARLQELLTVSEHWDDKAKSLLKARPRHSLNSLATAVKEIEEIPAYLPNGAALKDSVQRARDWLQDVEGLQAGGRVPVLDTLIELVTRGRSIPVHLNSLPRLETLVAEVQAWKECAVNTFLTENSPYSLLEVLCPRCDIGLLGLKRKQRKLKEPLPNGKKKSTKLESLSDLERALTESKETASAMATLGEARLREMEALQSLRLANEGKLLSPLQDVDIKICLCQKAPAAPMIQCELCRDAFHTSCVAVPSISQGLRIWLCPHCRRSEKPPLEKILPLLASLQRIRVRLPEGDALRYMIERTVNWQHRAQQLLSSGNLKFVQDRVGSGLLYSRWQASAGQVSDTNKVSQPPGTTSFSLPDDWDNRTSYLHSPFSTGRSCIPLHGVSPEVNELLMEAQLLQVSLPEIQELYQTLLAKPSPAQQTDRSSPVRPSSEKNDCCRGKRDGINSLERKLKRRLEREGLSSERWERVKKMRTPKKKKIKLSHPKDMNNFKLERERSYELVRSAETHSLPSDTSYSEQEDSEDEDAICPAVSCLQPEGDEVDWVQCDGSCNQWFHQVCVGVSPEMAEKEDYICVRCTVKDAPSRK
# Assay: Primary screen for KDM5B Histone Demethylases FDH-coupled qHTS; further: nearly all actives have a fitted effect of over 70% in size; on activity change, negative = inhibition: 0% is about no effect
# Settings: FDH-coupled NADH fluorescence (FDH is formaldehyde dehydrogenase); activity change, negative = inhibition: at 57.7 µM (top of the series) unless noted
# In short: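 Here, H3K4me3 peptide (12.5 µM in substrate mix) is demethylated by KDM5BΔAP, 200 nM final, after 10 min compound exposure. Formaldehyde product is coupled through FDH (0.25 U/mL in mix) to NADH fluorescence; 30-min ΔRFU feeds dose-response curves.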
# Potency means the concentration at half of the fitted maximal effect; tags describe the fitted curve by direction and shape.
SMILES,Potency,"activity change, negative = inhibition"
Cc1ccccc1Nc1c(-c2ccccc2)nc2cccc(C)n12,"inconclusive: 3.55 µM [inhibitor, full curve, poor fit]",–
O=C(Cn1cnc2c(nc3n2CCCCC3)c1=O)Nc1ccc(F)c(Cl)c1,"inconclusive: 1.26 µM [inhibitor, full curve, poor fit]",–
COC(=O)C1=CN(Cc2ccco2)C=C(C(=O)OC)C1c1ccccc1,"inconclusive: 25.1 µM [inhibitor, partial curve, poor fit]",–
CC(O)c1cc2n(n1)CCN(Cc1ccc(CN(C)S(C)(=O)=O)o1)C2 (centres undefined),"inconclusive: 14.1 µM [inhibitor, single point]",–
CCN1C(=O)COc2ccc(-c3nc(NC(=O)c4ccccc4)sc3C)cc21,"inconclusive: 35.5 µM [inhibitor, single point]",–
CCn1cc(CN2CCCCCNC(=O)[C@@H]3CCC[C@@H]32)cn1,"inconclusive: 12.6 µM [inhibitor, partial curve, poor fit]",–
O=C(c1cccc2[nH]ccc12)N1CCCN(c2cc(-c3ccc(Cl)cc3)[nH]n2)CC1,"inconclusive: 28.2 µM [inhibitor, partial curve, poor fit]",–
c1ccc2cc(-c3nc(C4CCOC4)no3)ncc2c1 (centres undefined),"inconclusive: 25.1 µM [inhibitor, single point]",–
Cc1noc2c(-c3cccnc3NC3CCN(C)CC3)cc(-c3ccccc3)nc12,"inconclusive: 35.5 µM [inhibitor, partial curve, poor fit]",–
O=C(NCc1cccs1)c1nc(-c2cccnc2)c2cnccn12,active: 25.1 µM,–
COc1ccccc1-c1nc(C(=O)N2CCOCC2)n2ccccc12,active: 89.1 µM,–
COc1ccc(CNCc2c(C(=O)O)n(Cc3ccc(F)cc3)c3cc(C)ccc23)cc1OC,"inconclusive: 44.7 µM [inhibitor, single point]",–
CCOCCCNC(=O)c1ccc(-n2c(-c3ccccc3)cc3c2CCCCC3)cc1,"inconclusive: 15.8 µM [inhibitor, partial curve, poor fit]",–
CCc1noc(-c2cccn3c(CNC(=O)C(C)Oc4ccccc4)nnc23)n1 (centres undefined),"inconclusive: 31.6 µM [inhibitor, single point]",–
COCCN(Cc1cc2ccc(C)cc2[nH]c1=O)C(=O)c1cccc(OC)c1,"inconclusive: 22.4 µM [inhibitor, partial curve, poor fit]",–
N#Cc1nc(-c2ccco2)oc1N1CCN(C(=O)NCC2CC2)CC1,"inconclusive: 22.4 µM [inhibitor, partial curve, poor fit]",–
Cc1ccc(S(=O)(=O)N2CCC(CCC(=O)N3CCN(C)CC3)CC2)cc1,inactive,–
O=C(COC(=O)CCSc1ccccc1Cl)Nc1ncc(Cl)cc1Cl,"inconclusive: 39.8 µM [inhibitor, single point]",–
CCCCCC1CCC(c2ccc(-c3ccc(SC(F)F)cc3)cc2)CC1 (centres undefined),inactive,–
COc1ccc(-n2cc(CN3CCCN(C)CC3)c(-c3cccc(F)c3)n2)cc1,"inconclusive: 28.2 µM [inhibitor, partial curve, poor fit]",–

SMILES,Potency,"activity change, negative = inhibition"
COc1cc(-c2ccc(C)s2)cc2c1OCCN(Cc1nc[nH]c1C)C2,"inconclusive: 25.1 µM [inhibitor, single point]",–
CCOC(=O)c1c(NC(C)=O)c2c3c(sc2n1Cc1nc(-c2ccccc2Cl)oc1C)CCCC3,"inconclusive: 2.82 µM [inhibitor, partial curve, poor fit]",–
Cc1ccc(CNC(=O)c2cc3c(s2)-c2c(C)cccc2OC3)cc1,"inconclusive: 31.6 µM [inhibitor, partial curve, poor fit]",–
COc1ccc(CN(Cc2ccco2)C(=O)c2cc3cc(OC)c(OC)cc3[nH]2)cc1,"inconclusive: 20 µM [inhibitor, partial curve, poor fit]",–
CCc1ccc(CN(C)C(=O)c2ccc3oc(-c4cccc(F)c4)nc3c2)nc1,active: 28.2 µM,–
Cc1cccc(NC(=O)C2CCN(c3cnccn3)CC2)c1,"inconclusive: 14.1 µM [inhibitor, partial curve, poor fit]",–
CCn1nc(-c2ccc(C)c(S(=O)(=O)NCc3ccccc3)c2)c2c(c1=O)CCCC2,inactive,–
CC1CCN(S(=O)(=O)c2ccc3c(c2)oc(=O)n3CC(=O)O)CC1,"inconclusive: 15.8 µM [inhibitor, partial curve, poor fit]",–
COc1ccc(CC(=O)Nc2ccc3nc(N4CCCCC4)cc(C)c3c2)cc1,"inconclusive: 15.8 µM [inhibitor, partial curve, poor fit]",–
O=C(CS(=O)(=O)c1ccc(N2CCCC2=O)cc1)N1CCOCC1,inactive,–
COc1ccc(-n2nc3n(c2=O)CCN(Cc2cccnc2)C3)cc1,"inconclusive: 56.2 µM [inhibitor, partial curve]",–
C/C(CCC1CC(C)(C)OC1=O)=N\NC(N)=S (centres undefined),"inconclusive: 39.8 µM [inhibitor, single point]",–
O=C(N[C@H]1CCN2C(=O)c3cc(-c4ccsc4)ccc3NC(=O)[C@H]12)c1cccs1,"inconclusive: 31.6 µM [inhibitor, single point]",–
COc1ccc(CNC(=O)Cc2c(C)c3c(cc(C)c4c(C)c(C)oc43)oc2=O)cc1OC,"inconclusive: 35.5 µM [inhibitor, single point]",–
O=C(CCc1ccccc1)N1CCC2(CC1)CN(c1ncccn1)CC2CO (centres undefined),"inconclusive: 25.1 µM [inhibitor, single point]",–
CCOc1ccc(NC(=O)CCc2c(C)nc3cc(-c4ccc(Cl)cc4)nn3c2C)cc1,"inconclusive: 39.8 µM [inhibitor, single point]",–
CNC(=O)Nc1ccc(C)n(CC(=O)NCc2cccc(Cl)c2)c1=O,"inconclusive: 35.5 µM [inhibitor, partial curve]",–
COc1ccc(-c2c3c(=O)n(C)c(=O)n(C)c3c3n2CCOC3c2coc3ccccc3c2=O)cc1 (centres undefined),–,inconclusive: -31.4% [inhibitor]
Cc1[nH]n2c(=O)cc(-c3ccc4ccccc4c3)nc2c1-c1ccccc1,"inconclusive: 39.8 µM [inhibitor, single point]",–
